Where a name gives a salt, the structure may show the parent alone. Screen size: about 1,500 compounds; about 30 (2%) showed activity.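 The calls were made as follows: active = robust z-score below -2; a few such results were not called.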 The list shows a part of the results.

Consider 65 compounds from the supplement of paper PMC12582362.

The subject of this assay is optoTopBP1 Flp-In 293 T-REx (HEK293) cells. Description: light-induced TopBP1 condensate (nuclear foci) count, plate-normalised robust z-score vs non-control wells; higher = more TopBP1 condensates (negative = condensation inhibitor), active = hit call of the paper. The settings on record: 10 µM; incubation time 2 h.
In the case of `COc1ccc2c3c1O[C@H]1C[C@@H](O)C=C[C@@]31CCN(C)C2` [Galanthamine hydrobromide], the “light-induced TopBP1 condensate (z-score)” value was inactive: -1.02.
As for `Cc1cc(C#N)cc(C)c1Oc1nc(Nc2ccc(C#N)cc2)nc(N)c1Br` [Etravirine], the “light-induced TopBP1 condensate (z-score)” value was inactive: 0.362.
Consider `Cc1nnc(SCC2=C(C(=O)O)N3C(=O)[C@@H](NC(=O)Cn4cnnn4)[C@H]3SC2)s1` [Cefazolin sodium salt], for which the “light-induced TopBP1 condensate (z-score)” value is inactive: 0.18.
The same measure for `O=c1[nH]c(=O)n([C@H]2C[C@H](O)[C@@H](CO)O2)cc1C(F)(F)F` [Trifluridine]: inactive: -0.311.
The same measure for `CC(=O)CC(c1ccc([N+](=O)[O-])cc1)c1c(O)c2ccccc2oc1=O` (stereo not given) [Acenocoumarol]: inactive: 0.421.
Consider `CCCCCCCCNC(C)C(O)c1ccc(SC(C)C)cc1` (stereo not given) [Suloctidil], for which the “light-induced TopBP1 condensate (z-score)” value was inactive: -0.0851.
Take `S=c1[nH]cnc2nc[nH]c12` [Mercaptopurine]: the “light-induced TopBP1 condensate (z-score)” value is inactive: -0.664.
On to `CN(Cc1ccc(C(C)(C)C)cc1)Cc1cccc2ccccc12` [Butenafine Hydrochloride], for which the “light-induced TopBP1 condensate (z-score)” value is inactive: -0.115.
Turning to `CC1(C)O[C@@H]2[C@@H](CO[C@@]3(COS(N)(=O)=O)OC(C)(C)O[C@@H]23)O1` [Topiramate], the “light-induced TopBP1 condensate (z-score)” value is inactive: 0.873.
For `CC[N+](CC)(CC(=O)Nc1c(C)cccc1C)Cc1ccccc1` [Denatonium benzoate], the “light-induced TopBP1 condensate (z-score)” value was inactive: 0.105.
For `COc1cc(NS(=O)(=O)c2ccc(N)cc2)nc(OC)n1` [Sulfadimethoxine] the value was inactive: 0.224; for `CN(C)c1cc(NC(=O)CNC(C)(C)C)c(O)c2c1C[C@H]1C[C@H]3[C@H](N(C)C)C(O)=C(C(N)=O)C(=O)[C@@]3(O)C(O)=C1C2=O` [Tigecycline], inactive: 0.904.
As for `Cc1cccc(Nc2ccncc2S(=O)(=O)NC(=O)NC(C)C)c1` [Torsemide], the “light-induced TopBP1 condensate (z-score)” value is inactive: 0.675.
Regarding `NC(=O)N1c2ccccc2CC(=O)c2ccccc21` [Oxcarbazepine], the “light-induced TopBP1 condensate (z-score)” value was inactive: 0.996.
For `CC(C)Cn1cnc2c(N)nc3ccccc3c21` [Imiquimod] the value was inactive: -0.358; for `CC(C)(C)NCC(O)COc1cccc2c1CC(O)C(O)C2` (stereo not given) [Nadolol], inactive: 1.12.
As to `CCOCCn1c(N2CCCN(C)CC2)nc2ccccc21` [Emedastine], the “light-induced TopBP1 condensate (z-score)” value was inactive: -0.971.
As for `Cc1cccn2c(=O)c(-c3nnn[nH]3)cnc12` [Pemirolast potassium], the “light-induced TopBP1 condensate (z-score)” value is inactive: 0.448.
As for `CC[C@H](C)C(=O)O[C@H]1C[C@H](O)C=C2C=C[C@H](C)[C@H](CC[C@@H](O)C[C@@H](O)CC(=O)O)[C@H]21` [Pravastatin], the “light-induced TopBP1 condensate (z-score)” value was inactive: -0.451.
`CC1=C(C(=O)O)N2C(=O)[C@@H](NC(=O)[C@H](N)c3ccccc3)[C@H]2SC1` [Cephalexin monohydrate]: the “light-induced TopBP1 condensate (z-score)” value was inactive: -0.61.
Take `Cc1nccn1CC1CCc2c(c3ccccc3n2C)C1=O` (stereo not given) [Ondansetron Hydrochloride]: the “light-induced TopBP1 condensate (z-score)” value was inactive: 1.05.
As to `CC(=O)NC[C@H]1CN(c2ccc(N3CCOCC3)c(F)c2)C(=O)O1` [Linezolid], the “light-induced TopBP1 condensate (z-score)” value was inactive: 0.569.
Turning to `COc1ccc2c(c1)c(CC(=O)OCC(=O)O)c(C)n2C(=O)c1ccc(Cl)cc1` [Acemetacin], the “light-induced TopBP1 condensate (z-score)” value was inactive: -0.239.
For the compound `Nc1nnc(-c2cccc(Cl)c2Cl)c(N)n1` [Lamotrigine], the “light-induced TopBP1 condensate (z-score)” value was inactive: -0.281.
Take `CC[C@@]1(O)C(=O)OCc2c1cc1n(c2=O)Cc2cc3c(CN(C)C)c(O)ccc3nc2-1` [Topotecan]: the “light-induced TopBP1 condensate (z-score)” value is active: -2.31.
As for `Nc1nc(=O)[nH]cc1F` [Flucytosine], the “light-induced TopBP1 condensate (z-score)” value is inactive: -0.698.
On to `Clc1cc(Cl)c(OCC#CI)cc1Cl` [Haloprogin], for which the “light-induced TopBP1 condensate (z-score)” value was inactive: -0.754.
For `Cc1cccc(C)c1NC(=O)CN1CCN(CCCC(c2ccc(F)cc2)c2ccc(F)cc2)CC1` [Lidoflazine], the “light-induced TopBP1 condensate (z-score)” value is inactive: 0.0471.
As for `NC[C@H]1O[C@H](O[C@H]2[C@H](O)[C@@H](O[C@H]3O[C@H](CO)[C@@H](O)[C@H](N)[C@H]3O)[C@H](N)C[C@@H]2N)[C@H](N)[C@@H](O)[C@@H]1O` [Kanamycin B], the “light-induced TopBP1 condensate (z-score)” value is inactive: -0.663.
In the case of `CC(=O)O[C@]1(C(C)=O)CC[C@H]2[C@@H]3C=C(C)C4=CC(=O)CC[C@]4(C)[C@H]3CC[C@@]21C` [Megestrol acetate], the “light-induced TopBP1 condensate (z-score)” value is inactive: -1.02.
For the compound `C=C1[C@H](CO)[C@@H](O)C[C@@H]1n1cnc2c(=O)[nH]c(N)nc21` [Entecavir], the “light-induced TopBP1 condensate (z-score)” value was inactive: 0.104.
On to `CC/C=C(\C(=O)N[C@@H]1C(=O)N2C(C(=O)OCOC(=O)C(C)(C)C)=C(COC(N)=O)CS[C@H]12)c1csc(N)n1` [Cefcapene pivoxil hydrochloride], for which the “light-induced TopBP1 condensate (z-score)” value is inactive: -0.782.
As to `Cc1c(F)c(N2CCNC(C)C2)cc2c1c(=O)c(C(=O)O)cn2C1CC1` (stereo not given) [Grepafloxacin], the “light-induced TopBP1 condensate (z-score)” value was inactive: -0.138.
The same measure for `N=C(N=C(N)N)N1CCOCC1` [Moroxidine hydrochloride]: inactive: 0.265; for `CC(=O)OCC(=O)[C@@]12OC3(CCCC3)O[C@@H]1C[C@H]1[C@@H]3CCC4=CC(=O)C=C[C@]4(C)[C@@]3(F)[C@@H](O)C[C@@]12C` [Amcinonide]: inactive: 0.776; for `CC(=O)Nc1ccc(OCC(O)CNC(C)C)cc1` (stereo not given) [Practolol]: inactive: 0.429.
In the case of `CN1[C@@H]2CC[C@H]1C[C@@H](OC(c1ccccc1)c1ccccc1)C2` [Benztropine mesylate], the “light-induced TopBP1 condensate (z-score)” value was inactive: -1.3.
As to `O=C(Nc1ccccc1)OCC(CN1CCCCC1)OC(=O)Nc1ccccc1` (stereo not given) [Diperodon hydrochloride], the “light-induced TopBP1 condensate (z-score)” value is inactive: -0.994.
For the compound `CCCCC1C(=O)N(c2ccccc2)N(c2ccccc2)C1=O` [Phenylbutazone], the “light-induced TopBP1 condensate (z-score)” value is inactive: 0.62.
Consider `CCCc1nc2c(C)cc(-c3nc4ccccc4n3C)cc2n1Cc1ccc(-c2ccccc2C(=O)O)cc1` [Telmisartan], for which the “light-induced TopBP1 condensate (z-score)” value was inactive: -0.0531.
Turning to `CCCCOC(=O)c1ccc(O)cc1` [Butylparaben], the “light-induced TopBP1 condensate (z-score)” value is inactive: -0.619.
Consider `COCCCOc1cc(C[C@@H](C[C@H](N)[C@@H](O)C[C@H](C(=O)NCC(C)(C)C(N)=O)C(C)C)C(C)C)ccc1OC` [Aliskiren hemifumarate], for which the “light-induced TopBP1 condensate (z-score)” value was inactive: -0.517.
As to `CC(=O)/N=c1/sc(S(N)(=O)=O)nn1C` [Methazolamide], the “light-induced TopBP1 condensate (z-score)” value is inactive: 0.0353.
The same measure for `N=C(N)N1CCc2ccccc2C1` [Debrisoquin sulfate]: inactive: 0.854; for `C[C@H](O)[C@H](O)[C@H]1CNc2[nH]c(N)nc(=O)c2N1` [Sapropterin dihydrochloride]: inactive: 0.574; for `O=C(O)Cc1cc(I)c(Oc2ccc(O)c(I)c2)c(I)c1` [Tiratricol, 3,3',5-triiodothyroacetic acid]: inactive: 0.358.
With `COCCCOc1ccnc(C[S+]([O-])c2nc3ccccc3[nH]2)c1C` (stereo not given) [Rabeprazole Sodium salt], the “light-induced TopBP1 condensate (z-score)” value was inactive: -0.658.
Regarding `CNCC[C@@H](Oc1ccccc1C)c1ccccc1` [Tomoxetine hydrochloride], the “light-induced TopBP1 condensate (z-score)” value was inactive: -1.4.
With `Cc1ccc(C(=O)C(C)CN2CCCCC2)cc1` (stereo not given) [Tolperisone hydrochloride], the “light-induced TopBP1 condensate (z-score)” value is inactive: 0.383.
The same measure for `O=C(CCCCC(=O)Nc1c(I)cc(I)c(C(=O)O)c1I)Nc1c(I)cc(I)c(C(=O)O)c1I` [Iodipamide]: inactive: -0.465; for `NS(=O)(=O)c1cc2c(cc1Cl)N=CNS2(=O)=O` [Chlorothiazide]: inactive: 0.000355.
For `O=C(CCCl)NCc1ccccc1` [Beclamide], the “light-induced TopBP1 condensate (z-score)” value was inactive: 0.736.
Take `CN[C@H](CC(C)C)C(=O)N[C@H]1C(=O)N[C@@H](CC(N)=O)C(=O)N[C@H]2C(=O)N[C@H]3C(=O)N[C@H](C(=O)N[C@H](C(=O)O)c4cc(O)cc(O)c4-c4cc3ccc4O)[C@H](O)c3ccc(c(Cl)c3)Oc3cc2cc(c3O[C@@H]2O[C@H](CO)[C@@H](O)[C@H](O)[C@H]2O[C@H]2C[C@](C)(N)[C@H](O)[C@H](C)O2)Oc2ccc(cc2Cl)[C@H]1O` [Vancomycin hydrochloride]: the “light-induced TopBP1 condensate (z-score)” value is inactive: 0.547.
In the case of `CNS(=O)(=O)Cc1ccc2[nH]cc(CCN(C)C)c2c1` [Sumatriptan succinate], the “light-induced TopBP1 condensate (z-score)” value was inactive: 0.656.
For the compound `NC(=O)c1ncn([C@@H]2O[C@H](CO)[C@@H](O)[C@H]2O)n1` [Ribavirin], the “light-induced TopBP1 condensate (z-score)” value was inactive: -0.423.
For `CCOC(=O)[C@H](CCc1ccccc1)N[C@@H](C)C(=O)N1[C@H](C(=O)O)C[C@@H]2CCC[C@@H]21` [Ramipril] the value was inactive: 1.01; for `CCOc1ccc2c(c1)C(C)=CC(C)(C)N2` [Ethoxyquin], inactive: 0.549.
Consider `CC(C)COCC(CN(Cc1ccccc1)c1ccccc1)N1CCCC1` (stereo not given) [Bepridil hydrochloride], for which the “light-induced TopBP1 condensate (z-score)” value was inactive: 0.64.
Regarding `O=C(O)c1cc(=O)c2ccccc2o1` [Chromocarb], the “light-induced TopBP1 condensate (z-score)” value is inactive: -0.4.
The same measure for `NS(=O)(=O)c1cc(C(=O)O)c(NCc2ccco2)cc1Cl` [Furosemide]: inactive: 0.751; for `Cc1cc(C2CCCCC2)n(O)c(=O)c1` [Ciclopirox ethanolamine]: inactive: -0.67; for `COc1cc(C(=O)NS(=O)(=O)c2ccccc2C)ccc1Cc1cn(C)c2ccc(NC(=O)OC3CCCC3)cc12` [Zafirlukast]: inactive: -0.639.
For `O=C1NCN(c2ccccc2)C12CCN(CCCC(c1ccc(F)cc1)c1ccc(F)cc1)CC2` [Fluspirilen] the value was inactive: -0.796; for `CC(C)(C)C(=O)OCOC(=O)[C@@H]1N2C(=O)[C@@H](NC(=O)[C@H](N)c3ccccc3)[C@H]2SC1(C)C` [Pivampicillin], inactive: 0.172.
For `CN(C)C(=O)COC(=O)Cc1ccc(OC(=O)c2ccc(NC(=N)N)cc2)cc1` [Camostat mesylate] the value was inactive: -0.369.
